In a collection of fitness landscapes (doi:10.1126/science.1257360) one finds enrichment ratio data, which are given here for 84 variants.

The labels stand for the following.
B1: PhoQ; a variant is named by its letters at X, in order, P23837 (parent)
chain: MKKLLRLFFPLSLRVRFLLATAAVVLVLSLAYGMVALIGYSVSFDKTTFRLLRGESNLFYTLAKWENNKLHVELPENIDKQSPTMTLIYDENGQLLWAQRDVPWLMKMIQPDWLKSNGFHEIEADVNDTSLLLSGDHSIQQQLQEVREDDDDAEMTHSVAVNVYPATSRMPKLTIVVVDTIPVELKSSYMVWSWFIYVLSANLLLVIPLLWVAAWWSLRPIEALAKEVRELEEHNRELLNPATTRELTSLVRNLNRLLKSERERYDKYRTTLTDLTHSLKTPLXXLQXXLRSLRSEKMSVSDAEPVMLEQISRISQQIGYYLHRASMRGGTLLSRELHPVAPLLDNLTSALNKVYQRKGVNISLDISPEISFVGEQNDFVEVMGNVLDNACKYCLEFVEISARQTDEHLYIVVEDDGPGIPLSKREVIFDRGQRVDTLRPGQGVGLAVAREITEQYEGKIVAGESMLGGARMEVIFGRQHSAPKDE

The other results are listed elsewhere or left out.

Variants of B1 are the subject of this experiment. As to the kind of experiment: enrichment ratio after two sorts for PhoP signalling (ratio (wild type AVST 3.29)); higher = more functional. The settings on record: with PhoP (E. coli).
Regarding PGMR, the enrichment ratio is no more than 0.25.
Next, PKDI: no more than 0.25; TKHK: no more than 0.25; GKCC: no more than 0.25.
On to TAQW, for which the enrichment ratio was no more than 0.25.
Take NRNQ: the enrichment ratio is no more than 0.25.
On to DEFI, for which the enrichment ratio is no more than 0.25.
On to MYDY, for which the enrichment ratio is no more than 0.25.
For ETPA, the enrichment ratio was no more than 0.25.
For IQPW, the enrichment ratio is no more than 0.25.
On to RDQQ, for which the enrichment ratio was no more than 0.25.
Next, MNFR: no more than 0.25; EVHG: no more than 0.25.
In the case of LRKG, the enrichment ratio came to 0.731.
Next, KFHD: no more than 0.25; NPLK: no more than 0.25; HAKL: no more than 0.25.
For GGTM, the enrichment ratio amounted to 1.63.
Next, EDLV: no more than 0.25; WYAW: no more than 0.25.
For the variant VRRH, the enrichment ratio was no more than 0.25.
As for TEQV, the enrichment ratio is 11.
Take RFEM: the enrichment ratio is no more than 0.25.
For the variant LPMS, the enrichment ratio is no more than 0.25.
In the case of TIRI, the enrichment ratio is 2.01.
With FSNI, the enrichment ratio is no more than 0.25.
With VLPW, the enrichment ratio is no more than 0.25.
With NWQG, the enrichment ratio is no more than 0.25.
Consider KGGL, for which the enrichment ratio was no more than 0.25.
As to TIIC, the enrichment ratio is no more than 0.25.
Regarding DVLG, the enrichment ratio was no more than 0.25.
As to VSTR, the enrichment ratio was no more than 0.25.
In the case of AFDQ, the enrichment ratio is no more than 0.25.
Regarding DYVT, the enrichment ratio was no more than 0.25.
For EGYM, the enrichment ratio was no more than 0.25.
As to PQCR, the enrichment ratio is no more than 0.25.
Consider YWSF, for which the enrichment ratio was no more than 0.25.
Regarding DQYN, the enrichment ratio is no more than 0.25.
Turning to KYSH, the enrichment ratio is no more than 0.25.
Turning to FNRL, the enrichment ratio was no more than 0.25.
For WVSS, the enrichment ratio was no more than 0.25.
ITGR: the enrichment ratio is no more than 0.25.
Take YSFA: the enrichment ratio was no more than 0.25.
As to MTPM, the enrichment ratio is no more than 0.25.
For EMMA, the enrichment ratio was no more than 0.25.
On to NQAG, for which the enrichment ratio is no more than 0.25.
YYTL: the enrichment ratio was no more than 0.25.
Next, PCMC: no more than 0.25; SMKA: no more than 0.25.
Next, MPFY: no more than 0.25; IQCY: no more than 0.25.
As for GEPL, the enrichment ratio was no more than 0.25.
Turning to WFWT, the enrichment ratio was no more than 0.25.
In the case of SFNF, the enrichment ratio was no more than 0.25.
Next, ALCD: 2.77.
Next, WDKD: no more than 0.25.
With IKEV, the enrichment ratio is no more than 0.25.
As to ESSA, the enrichment ratio is no more than 0.25.
For WMKL, the enrichment ratio was no more than 0.25.
For KQIT, the enrichment ratio was no more than 0.25.
As to IHSC, the enrichment ratio was no more than 0.25.
For the variant PKCC, the enrichment ratio was no more than 0.25.
For the variant LCDF, the enrichment ratio is no more than 0.25.
Consider QTDC, for which the enrichment ratio worked out at 6.63.
With YNRY, the enrichment ratio is no more than 0.25.
Turning to NWNC, the enrichment ratio is no more than 0.25.
As for NESQ, the enrichment ratio is no more than 0.25.
Regarding HDWL, the enrichment ratio is no more than 0.25.
Next, PLTL: no more than 0.25; DWHE: no more than 0.25; KHWG: no more than 0.25.
Regarding SCNF, the enrichment ratio was found to be 14.3.
Next, ELRM: no more than 0.25; QESC: 5.96.
HEDK: the enrichment ratio is no more than 0.25.
HQGR: the enrichment ratio is no more than 0.25.
Next, TAGG: 3.74; DTSA: no more than 0.25; VRHK: no more than 0.25.
Consider GKAV, for which the enrichment ratio is no more than 0.25.
As to THQR, the enrichment ratio is no more than 0.25.
As for LIEF, the enrichment ratio is no more than 0.25.
Regarding INKI, the enrichment ratio was no more than 0.25.
For NSQS, the enrichment ratio is no more than 0.25.
